About 14,000 (4.5%) of roughly 310,000 compounds showed an effect of 50% or more. The effect is printed as a negative number. This is one part of the list.
biological target: human ether-à-go-go-related gene (hERG) potassium channel (human, UniProt Q12809); experiment: primary screen, population patch clamp on CHO cells stably expressing hERG
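Further: peak tail current of the secondary pulse compared with the same well before compound.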

Chain of human ether-à-go-go-related gene (hERG) potassium channel (Q12809 whole entry, looked up): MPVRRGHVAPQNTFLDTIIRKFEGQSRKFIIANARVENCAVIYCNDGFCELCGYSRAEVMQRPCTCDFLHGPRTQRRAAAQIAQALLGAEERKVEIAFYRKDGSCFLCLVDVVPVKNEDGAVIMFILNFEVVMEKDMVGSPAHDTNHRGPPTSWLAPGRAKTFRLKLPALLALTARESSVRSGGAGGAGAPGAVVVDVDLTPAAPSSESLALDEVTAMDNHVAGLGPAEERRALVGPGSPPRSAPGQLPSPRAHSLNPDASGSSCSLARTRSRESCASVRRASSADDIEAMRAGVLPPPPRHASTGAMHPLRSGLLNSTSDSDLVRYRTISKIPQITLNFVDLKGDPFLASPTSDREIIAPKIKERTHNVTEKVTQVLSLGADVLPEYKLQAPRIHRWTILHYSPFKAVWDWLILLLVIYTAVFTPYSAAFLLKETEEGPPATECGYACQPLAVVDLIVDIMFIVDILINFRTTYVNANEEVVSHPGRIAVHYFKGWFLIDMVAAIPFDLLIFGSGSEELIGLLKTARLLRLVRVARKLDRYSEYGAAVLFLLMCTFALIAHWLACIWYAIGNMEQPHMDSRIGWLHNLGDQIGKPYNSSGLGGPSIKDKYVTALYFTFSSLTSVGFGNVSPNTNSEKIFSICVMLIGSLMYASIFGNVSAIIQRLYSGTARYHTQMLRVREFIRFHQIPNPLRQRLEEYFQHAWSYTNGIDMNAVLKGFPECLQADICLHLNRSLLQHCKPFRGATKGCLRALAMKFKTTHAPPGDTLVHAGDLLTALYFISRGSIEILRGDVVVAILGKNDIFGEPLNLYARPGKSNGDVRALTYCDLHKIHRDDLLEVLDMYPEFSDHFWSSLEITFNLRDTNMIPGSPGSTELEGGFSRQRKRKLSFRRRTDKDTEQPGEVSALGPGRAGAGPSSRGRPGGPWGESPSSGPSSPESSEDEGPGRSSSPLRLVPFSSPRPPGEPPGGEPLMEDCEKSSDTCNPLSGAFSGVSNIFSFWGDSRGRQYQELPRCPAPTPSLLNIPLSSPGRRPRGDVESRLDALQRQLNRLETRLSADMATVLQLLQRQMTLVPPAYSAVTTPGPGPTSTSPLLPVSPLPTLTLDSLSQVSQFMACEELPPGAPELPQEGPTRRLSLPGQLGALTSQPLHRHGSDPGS

Structure (SMILES)	hERG current change (%, negative = inhibition) at 10uM [%]
O=C(NCCO)c1cc2ccccc2c(=O)s1	6.96
COC(=O)c1ccc(S(=O)(=O)N2CCCN(Cc3ccc(F)cc3)CC2)n1C	-14.1
Clc1cccc(Nc2nc(-c3ccncc3)nc3ccccc23)c1	-27.7
COc1ccc2nc3sc(C(=O)NCc4cccs4)c(N)c3cc2c1	2.97
CCOc1ccccc1OCCCOc1ccc(C)cc1Cl	0.906
CCc1ccc(OCC(=O)N/N=C(\C)c2ccc3c(c2)OCCO3)cc1	-21.5
Cc1ccc(/C=N/NC(=O)NC2CCCCC2)o1	-2.7
Cc1ccc(-c2cc(C(=O)Nc3nn[nH]n3)c3ccccc3n2)cc1	9.28
Cc1ccc2oc(C(=O)N(Cc3ccc(N(C)C)cc3)CC3CCCO3)c(C)c2c1 (centres unmarked)	-14.8
Cc1nonc1CN(C)C(=O)CC1C(=O)NCCN1Cc1c(F)cccc1Cl (centres unmarked)	1.94
C=CCNC(=O)c1cc2c(=O)n3cc(C)ccc3nc2nc1NCC1CCCO1 (centres unmarked)	-73
CCCN(CCC)CCCNC(=O)c1cc2c(=O)n(C)c3ccccc3c2n1C	-5.11
NC(=O)c1sc2nc3c(c(-c4ccco4)c2c1N)CCC3	-11.7
CCc1ccc(C(=O)Nc2cc(C)ccc2F)s1	24
CC(=O)N1CCSc2ccc(S(=O)(=O)Nc3cccc(C)c3)cc21	-3.2
CC(C(=O)O)n1c2ccccc2c2cn[nH]c(=O)c21 (centres unmarked)	15.8
Cc1ccc(C)c(S(=O)(=O)N2CCCCC2CCNC(=O)C(=O)NCc2cccnc2)c1 (centres unmarked)	-37.1
CCC(C)c1ccc(S(=O)(=O)Nc2cccnc2)cc1.Cl (centres unmarked)	11.9
COc1cc2ccccc2cc1C(=O)NCc1ccncc1	-23.9
CC(=O)NC(c1ccccc1)c1cc([N+](=O)[O-])c2cccnc2c1O (centres unmarked)	8.39
O=C(NCc1ccccc1)C1CCCN(c2ncnc3c2nc2n3CCCCC2)C1 (centres unmarked)	-69.1
CC(C)NC(=O)CSc1nc2ccccc2n1CC(=O)N1CCc2ccccc21	-8

Structure (SMILES)	hERG current change (%, negative = inhibition) at 10uM [%]
CCn1c(COc2ccc3c(c2)OCO3)nnc1SCC(=O)c1ccc(Cl)cc1	4.61
NNC(=O)c1sccc1OCc1ccc(Cl)cc1	2.41
COc1ccc(S(=O)(=O)NCc2ccccn2)c(Cl)c1Cl	-13.2
COc1ccccc1N1CCN(C(=O)c2cc(-c3ccc(F)cc3)on2)CC1	19.1
Clc1ccc(C(c2ccccc2)N2CCNCC2)cc1 (centres unmarked)	-22.7
CN1CCN(c2ccccc2NC(=O)c2ccc(-c3ccc(Br)cc3)o2)CC1	-30.5
O=C(CNS(=O)(=O)c1ccc(Br)cc1Cl)OCC(=O)c1ccc[nH]1	-14
COc1ccc(Nc2nc(C(C)(C)C)nc3c2nnn3Cc2ccccc2Cl)cc1OC	14
COC(=O)c1[nH]c2cc(OC)c(OC)cc2c1NC(=O)CN1C[C@H]2C[C@@H](C1)c1cccc(=O)n1C2	9.57
Cc1ccc(OCCC(=O)OCC(=O)Nc2ccc3[nH]c(=O)[nH]c3c2)cc1	-20.3
Cc1cc(C)cc(NC(=O)N(CCC#N)Cc2cccs2)c1	6.56
Cc1cccc(NC(=O)c2cc(Cl)sc2Cl)c1C	14.3
O=C(O)c1ccc(N/N=C/c2ccc(OC(=O)c3cccc(Cl)c3)cc2)cc1	-9.22
O=C(Nc1ccc(-c2nc3cc(NC(=O)c4cccs4)ccc3o2)cc1)c1cccs1	31.2
NS(=O)(=O)OCC(Cc1ccccc1)N1C(=O)c2ccccc2C1=O (centres unmarked)	-11.4
O=C(N/N=C(\Cc1ncc[nH]1)c1ccccc1)c1cccnc1	7.78
O=C(/C=C/c1ccccc1[N+](=O)[O-])N1CCN(c2ccccc2F)CC1	-13.8
O=C1CC(=O)N(CCc2ccc(F)cc2)C(=O)N1	9.33
CCOC(=O)c1ccc2c(c1)nc(SC/C(O)=C(\C#N)c1nc3ccccc3[nH]1)n2CC	21
CC(=O)Nc1ccc(S(=O)(=O)NCCc2ccc(S(N)(=O)=O)cc2)cc1	18.1
CCOC(=O)c1ccc(N2C(=O)C(CC(=O)NC)N(CCc3ccc(OC)c(OC)c3)C2=S)cc1 (centres unmarked)	-0.0322
O=C(CSc1nnc(-c2ccncc2)n1Cc1ccccc1)NC1CCCCC1	-18.7

Structure (SMILES)	hERG current change (%, negative = inhibition) at 10uM [%]
CC(C)CC(NS(=O)(=O)c1ccc2[nH]c(=O)c(=O)[nH]c2c1)C(=O)O (centres unmarked)	16.5
Cc1ccc(C(=O)N/C(=C/c2cn(-c3ccccc3)nc2-c2ccccc2)C(=O)O)cc1	18.1
COc1ccc2c(c1)OC[C@H]1[C@H]2N2C(=O)c3cc(Br)ccc3NC(=O)[C@@]2(C)[C@H]1c1ccccc1	-6.04
COc1ccc(CCC(=O)N2C[C@H]3C[C@@H](C2)c2cccc(=O)n2C3)cc1	-9.05
CCC/C(C)=N/NC(=O)c1ccccc1O	-7.28
Cc1ccc(NC(=O)COC(=O)c2ccc(F)cc2Cl)c(Br)c1	14.1
COc1cccc(CNc2ccc(F)c([N+](=O)[O-])c2)c1O	-22.5
CCOC(=O)c1ccccc1-c1cn2cc(Cl)ccc2n1	-24.1
CCOC(=O)C1=C(C)OC(N)=C(C#N)C1c1cc(OC)c2c(c1)OCO2 (centres unmarked)	-20.6
COc1cccc(C(=O)NCc2ccc3[nH]c(C)cc3c2)c1	18.7
CCOC(=O)c1sc(NC(=O)CSc2nnnn2-c2ccc(C)c(C)c2)nc1C	1.7
COc1cccc(NC(=O)Cn2cnc3sc(C)c(S(=O)(=O)N4CCN(C)CC4)c3c2=O)c1	9.98
Nc1nonc1-n1nnc(C(=O)N/N=C/c2ccc(Cl)cc2Cl)c1CN1CCOCC1	17.4
O=C(NNC(=O)c1cccc(-n2cccc2)c1)c1ccccc1	-1.74
O=c1[nH]c2ccccc2n1CCCN1CCC(n2c(=O)[nH]c3cc(Cl)ccc32)CC1	-65.5
Cc1cccc2[nH]c(CN(C)C(=O)C3CCC(=O)N(CCc4ccccc4)C3)nc12 (centres unmarked)	-13.7
CC(=O)c1ccc(NC(=O)Cn2nc(C)cc2C)cc1	5.09
C=CCn1c(SCC(=O)Nc2ccc(F)cc2)nc2ccccc2c1=O	-3.18
Cc1cc(=O)n(C)c(=O)n1CCCCOc1ccc([N+](=O)[O-])cc1	-68.9
COc1cc(C(=O)Nc2cccnc2)cc(OC)c1OC	16.3
Cc1ccn2c(=O)c(NC(=O)COc3ccccc3)c(C)nc2c1	-56.9
CCOc1c(Br)cc(C2CC(=O)Nc3cc(OC)c(OC)cc32)cc1OC (centres unmarked)	8.25

Structure (SMILES)	hERG current change (%, negative = inhibition) at 10uM [%]
C=CCNC(=O)/C(=C/c1cccc([N+](=O)[O-])c1)NC(=O)c1ccco1	-27.5
CN(Cc1ccco1)C(=O)c1ccc(S(=O)(=O)N2CCCCCC2)cc1	-32.5
COC(=O)C1=C(C)NC(C)=C(C(=O)OC)C1C(=O)OCC(=O)Nc1ccc(C(C)=O)cc1	13.6
COc1cccc(-c2cc(C(=O)N3N=C(C)CC3(O)C(F)F)c3ccccc3n2)c1 (centres unmarked)	0.295
CCCS(=O)(=O)N1CCN(C(=O)COc2ccc(-c3ccccc3)cc2)CC1	-27.1
O=C(/C(Cl)=C/Nc1ccc(Br)cn1)C(F)(F)F	12.7
O=C1c2ccccc2S(=O)(=O)c2cc(C(=O)N3CCC(O)CC3)ccc21	6.7
Cc1cc(C(=O)CN2CCCC2)c(C)n1-c1ccc(F)cc1	1.77
Cc1ccc(C23OCCN2CCn2nc4ccccc4c23)cc1 (centres unmarked)	-12.1
COc1ccc(NS(=O)(=O)c2ccc(Br)cc2)cn1	-0.528
CCCCCCCCCS(=O)(=O)N/N=C/c1cccc([N+](=O)[O-])c1	13.9
CC1=C(C(=O)OCC2CCCCC2)C(c2ccccc2F)NC(=O)N1 (centres unmarked)	-0.253
O=C1C=C(c2ccc3c(c2)OCO3)C[C@@H](c2ccc(Cl)cc2)C1	5.86
CCC(SC1=N/C(=C/c2ccccc2OC)C(=O)N1c1ccccc1)C(=O)Nc1cc(C)on1 (centres unmarked)	-3.34
O=C(N/N=C/C=C/c1ccccc1[N+](=O)[O-])c1cccs1	-17.8
Cc1cc(C)c(OCCCNCc2ccccc2)c(Br)c1.O=C(O)C(=O)O	-10.7
COc1ccc(NC(=O)c2nc[nH]c2C(=O)N[C@H](C)c2ccccc2)cc1	-3.73
CCNc1nc(NCC)n2c(SCC(=O)Nc3cc(Cl)ccc3OC)nnc2n1	-8.33
CN1CCN(/N=C/c2c3ccccc3c(Cl)c3ccccc23)CC1.Cl	3.81
NC(=O)Nc1ccccc1C(=O)N1CCC(O)(c2ccc(Cl)cc2)CC1	-0.977

Reference: article PMC4336329 (PLoS ONE, 2015)
